# From the supplement of paper PMC10037445
# ± gives the standard deviation of the averaged measurements. Whole data set: some 2,900 compounds, median “NF-kB SEAP reporter activity, fold change vs agonist alone” near 0.99, cut for the highest 2% near 2.6. This is one part of the list.
# How the values were obtained:
# RAW-Dual [1] = test: NF-kB SEAP reporter activity, fold change vs agonist alone; cytotoxicity flag (confluency mask): cytotoxic (confluency <70% of control); higher = enhanced NF-kB activity
# Procedure, shortened: (§1)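 Reporter activity is given as fold change relative to agonist-alone wells. To measure it, 50 nL of library stock was pin-tooled onto RAW-Dual macrophages (50,000 cells/well, DMEM, 384-well plates), a PRR agonist followed 1 h later, and cells stayed at 37 °C, 5% CO2. Twenty hours on, supernatant was assayed for IRF (QuantiLuc luminescence) and NF-κB (QuantiBlue, 620 nm absorbance), and wells under 70% of agonist-control IncuCyte confluency in both mask sets were marked cytotoxic.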
# RAW-Dual [2] = test: NF-kB SEAP reporter activity, fold change vs agonist alone; higher = enhanced NF-kB activity; settings: library stock concentration (final ~1000-fold dilution): 10 mM
# Procedure, shortened: as §1
# RAW-Dual [3] = test: NF-kB SEAP reporter activity, fold change vs agonist alone; cytotoxicity flag (confluency mask): not cytotoxic; higher = enhanced NF-kB activity
# Procedure, shortened: as §1
# [4] = agonist: ODN 1826 (TLR9) 0.5 ug/mL
# [5] = agonist: Pam2CSK4 (TLR2/6) 0.1 ug/mL
# [6] = agonist: Pam3CSK4 (TLR2/1) 0.1 ug/mL
# [7] = cytotoxicity flag (confluency mask): cytotoxic (confluency <70% of control), agonist: Imiquimod (TLR7) […]
# [8] = cytotoxicity flag (confluency mask): cytotoxic (confluency <70% of control), agonist: MPLA (TLR4) […]
# [9] = cytotoxicity flag (confluency mask): not cytotoxic, agonist: Imiquimod (TLR7) […]
# [10] = cytotoxicity flag (confluency mask): not cytotoxic, agonist: MPLA (TLR4) […]
smiles,measurement,setting,value
CN(CCNCc1cn(Cc2ccc(Cl)cc2)nn1)CCNc1ccnc2cc(Cl)ccc12.O=C(O)C(F)(F)F (library stock concentration (final ~1000-fold dilution): 10 mM),NF-kB SEAP reporter activity,RAW-Dual [1]; agonist: LPS (TLR4) 0.1 ug/mL,2.67
same,NF-kB SEAP reporter activity,RAW-Dual [1]; [4],0.269
same,NF-kB SEAP reporter activity,RAW-Dual [1]; [5],1.18
same,NF-kB SEAP reporter activity,RAW-Dual [1]; [6],1.87
CN(CCNCc1cn(Cc2ccc(Cl)cc2)nn1)CCNc1ccnc2cc(Cl)ccc12.O=C(O)C(F)(F)F,NF-kB SEAP reporter activity,RAW-Dual [2]; [7],1.52
same,NF-kB SEAP reporter activity,RAW-Dual [2]; [8],2.19
CC(=O)Oc1cc2c(s1)CCN(C(C(=O)C1CC1)c1ccccc1F)C2 (stereo not drawn),NF-kB SEAP reporter activity,RAW-Dual [2]; [9],1.82
same,NF-kB SEAP reporter activity,RAW-Dual [2]; [10],1.75
CC(=O)Oc1cc2c(s1)CCN(C(C(=O)C1CC1)c1ccccc1F)C2 (stereo not drawn) (library stock concentration (final ~1000-fold dilution): 10 mM),NF-kB SEAP reporter activity,RAW-Dual [3]; agonist: LPS (TLR4) 0.1 ug/mL,1
same,NF-kB SEAP reporter activity,RAW-Dual [3]; [4],1.21
same,NF-kB SEAP reporter activity,RAW-Dual [3]; [5],0.789
same,NF-kB SEAP reporter activity,RAW-Dual [3]; [6],0.717
COc1cc2c(OC3OC(CO)C4OC(C)(C)OC4C3O)c3c(c(-c4ccc5c(c4)OCO5)c2cc1OC)C(=O)OC3 (stereo not drawn),NF-kB SEAP reporter activity,RAW-Dual [2]; [9],0.364
same,NF-kB SEAP reporter activity,RAW-Dual [2]; [10],2.28
COc1cc2c(OC3OC(CO)C4OC(C)(C)OC4C3O)c3c(c(-c4ccc5c(c4)OCO5)c2cc1OC)C(=O)OC3 (stereo not drawn) (library stock concentration (final ~1000-fold dilution): 10 mM),NF-kB SEAP reporter activity,RAW-Dual [3]; agonist: LPS (TLR4) 0.1 ug/mL,2.9
same,NF-kB SEAP reporter activity,RAW-Dual [3]; [4],0.644
same,NF-kB SEAP reporter activity,RAW-Dual [3]; [5],1.95
same,NF-kB SEAP reporter activity,RAW-Dual [3]; [6],3.92
CC(C)C(=O)Nc1ccc([N+](=O)[O-])c(C(F)(F)F)c1,NF-kB SEAP reporter activity,RAW-Dual [2]; [9],1.63
same,NF-kB SEAP reporter activity,RAW-Dual [2]; [10],1.16
CC(C)C(=O)Nc1ccc([N+](=O)[O-])c(C(F)(F)F)c1 (library stock concentration (final ~1000-fold dilution): 10 mM),NF-kB SEAP reporter activity,RAW-Dual [3]; agonist: LPS (TLR4) 0.1 ug/mL,1.38
same,NF-kB SEAP reporter activity,RAW-Dual [3]; [4],1.18
same,NF-kB SEAP reporter activity,RAW-Dual [3]; [5],1.01
same,NF-kB SEAP reporter activity,RAW-Dual [3]; [6],1.6
S=C(NCc1ccc2c(c1)OCO2)N1CCN(c2ncnc3c2oc2ccccc23)CC1 (library stock concentration (final ~1000-fold dilution): 10 mM),NF-kB SEAP reporter activity,RAW-Dual [3]; agonist: LPS (TLR4) 0.1 ug/mL,1.39
same,NF-kB SEAP reporter activity,RAW-Dual [3]; [4],0.905
same,NF-kB SEAP reporter activity,RAW-Dual [3]; [5],0.502
same,NF-kB SEAP reporter activity,RAW-Dual [3]; [6],0.768
S=C(NCc1ccc2c(c1)OCO2)N1CCN(c2ncnc3c2oc2ccccc23)CC1,NF-kB SEAP reporter activity,RAW-Dual [2]; [9],0.726
same,NF-kB SEAP reporter activity,RAW-Dual [2]; [10],0.868
Nc1ncnc2c1ncn2C(C=O)OC(C=O)CO (stereo not drawn) (library stock concentration (final ~1000-fold dilution): 10 mM),NF-kB SEAP reporter activity,RAW-Dual [3]; agonist: LPS (TLR4) 0.1 ug/mL,0.475
same,NF-kB SEAP reporter activity,RAW-Dual [3]; [4],0.527
same,NF-kB SEAP reporter activity,RAW-Dual [3]; [5],0.132
same,NF-kB SEAP reporter activity,RAW-Dual [3]; [6],0.339
Nc1ncnc2c1ncn2C(C=O)OC(C=O)CO (stereo not drawn),NF-kB SEAP reporter activity,RAW-Dual [2]; [9],1.31
same,NF-kB SEAP reporter activity,RAW-Dual [2]; [10],0.717
CC1(C)CCC2=C(O1)c1ccccc1C(=O)C2=O (library stock concentration (final ~1000-fold dilution): 10 mM),NF-kB SEAP reporter activity,RAW-Dual [1]; agonist: LPS (TLR4) 0.1 ug/mL,0.208
same,NF-kB SEAP reporter activity,RAW-Dual [1]; [4],0.186
same,NF-kB SEAP reporter activity,RAW-Dual [1]; [5],0.0602
same,NF-kB SEAP reporter activity,RAW-Dual [1]; [6],0.154
CC1(C)CCC2=C(O1)c1ccccc1C(=O)C2=O,NF-kB SEAP reporter activity,RAW-Dual [2]; [7],0.125
same,NF-kB SEAP reporter activity,RAW-Dual [2]; [8],0.372
Cc1noc(C)c1-c1ccc(-c2cc(C(N)=O)c(NC(N)=O)s2)c(OC2CCNC2)c1 (stereo not drawn) (library stock concentration (final ~1000-fold dilution): 10 mM),NF-kB SEAP reporter activity,RAW-Dual [3]; agonist: LPS (TLR4) 0.1 ug/mL,0.567 ± 0.07
same,NF-kB SEAP reporter activity,RAW-Dual [3]; [4],0.449 ± 0.019
same,NF-kB SEAP reporter activity,RAW-Dual [3]; [5],0.275 ± 0.0078
same,NF-kB SEAP reporter activity,RAW-Dual [3]; [6],0.392 ± 0.058
Cc1noc(C)c1-c1ccc(-c2cc(C(N)=O)c(NC(N)=O)s2)c(OC2CCNC2)c1 (stereo not drawn),NF-kB SEAP reporter activity,RAW-Dual [2]; [9],0.654 ± 0.054
same,NF-kB SEAP reporter activity,RAW-Dual [2]; [10],0.683 ± 0.15
O=C(NCC(O)CN1CCc2ccccc2C1)c1ccnc(NC2CCC2)c1 (stereo not drawn),NF-kB SEAP reporter activity,RAW-Dual [2]; [9],0.885
same,NF-kB SEAP reporter activity,RAW-Dual [2]; [10],0.997
O=C(NCC(O)CN1CCc2ccccc2C1)c1ccnc(NC2CCC2)c1 (stereo not drawn) (library stock concentration (final ~1000-fold dilution): 10 mM),NF-kB SEAP reporter activity,RAW-Dual [3]; agonist: LPS (TLR4) 0.1 ug/mL,0.908
same,NF-kB SEAP reporter activity,RAW-Dual [3]; [4],0.581
same,NF-kB SEAP reporter activity,RAW-Dual [3]; [5],1.03
same,NF-kB SEAP reporter activity,RAW-Dual [3]; [6],0.884
Nc1nonc1/C(=N\O)Nc1ccc(F)c(Cl)c1,NF-kB SEAP reporter activity,RAW-Dual [2]; [9],0.904
same,NF-kB SEAP reporter activity,RAW-Dual [2]; [10],0.933
Nc1nonc1/C(=N\O)Nc1ccc(F)c(Cl)c1 (library stock concentration (final ~1000-fold dilution): 10 mM),NF-kB SEAP reporter activity,RAW-Dual [3]; agonist: LPS (TLR4) 0.1 ug/mL,1.01
same,NF-kB SEAP reporter activity,RAW-Dual [3]; [4],0.882
same,NF-kB SEAP reporter activity,RAW-Dual [3]; [5],0.938
same,NF-kB SEAP reporter activity,RAW-Dual [3]; [6],0.585
COC(=O)C1=C(C)NC(C)=C(C(=O)OC(C)C)C1c1cccc2nonc12 (stereo not drawn),NF-kB SEAP reporter activity,RAW-Dual [2]; [9],0.735
same,NF-kB SEAP reporter activity,RAW-Dual [2]; [10],1.36
COC(=O)C1=C(C)NC(C)=C(C(=O)OC(C)C)C1c1cccc2nonc12 (stereo not drawn) (library stock concentration (final ~1000-fold dilution): 10 mM),NF-kB SEAP reporter activity,RAW-Dual [3]; agonist: LPS (TLR4) 0.1 ug/mL,1.4
same,NF-kB SEAP reporter activity,RAW-Dual [3]; [4],0.719
same,NF-kB SEAP reporter activity,RAW-Dual [3]; [5],0.685
same,NF-kB SEAP reporter activity,RAW-Dual [3]; [6],0.926
Cn1cncc1C(N)(c1ccc(Cl)cc1)c1ccc2c(c1)c(-c1cccc(Cl)c1)cc(=O)n2C (stereo not drawn) (library stock concentration (final ~1000-fold dilution): 10 mM),NF-kB SEAP reporter activity,RAW-Dual [1]; agonist: LPS (TLR4) 0.1 ug/mL,0.821
same,NF-kB SEAP reporter activity,RAW-Dual [1]; [4],0.471
same,NF-kB SEAP reporter activity,RAW-Dual [1]; [5],0.191
same,NF-kB SEAP reporter activity,RAW-Dual [1]; [6],0.317
Cn1cncc1C(N)(c1ccc(Cl)cc1)c1ccc2c(c1)c(-c1cccc(Cl)c1)cc(=O)n2C (stereo not drawn),NF-kB SEAP reporter activity,RAW-Dual [2]; [7],1.24
same,NF-kB SEAP reporter activity,RAW-Dual [2]; [8],0.539
Cc1cc(C)nc(NC(=S)N2CCN(Cc3ccc(C(F)(F)F)cc3)CC2)c1,NF-kB SEAP reporter activity,RAW-Dual [2]; [9],0.758
same,NF-kB SEAP reporter activity,RAW-Dual [2]; [10],0.954
Cc1cc(C)nc(NC(=S)N2CCN(Cc3ccc(C(F)(F)F)cc3)CC2)c1 (library stock concentration (final ~1000-fold dilution): 10 mM),NF-kB SEAP reporter activity,RAW-Dual [3]; agonist: LPS (TLR4) 0.1 ug/mL,0.783
same,NF-kB SEAP reporter activity,RAW-Dual [3]; [4],0.834
same,NF-kB SEAP reporter activity,RAW-Dual [3]; [5],0.805
same,NF-kB SEAP reporter activity,RAW-Dual [3]; [6],0.809
